Test results: patent publication US5760092A, “Allocolchinones and uses thereof” (Brandeis University, priority 1996, dated 1998)

Tested on: HL-60 (TB) leukemia cells
Assay: cells
Conditions: Homo sapiens

**Q.** Which activity at 100 µM (HL-60, read-out: Percent Growth, log10 conc -4.0) does the source give for COc1cc2c(c(OC)c1OC)-c1ccc(OC)c(=O)cc1[C@@H](NC(C)=O)CC2 [Colchicine, reference compound] here?
**A.** The activity at 100 µM was -10%.

**Q.** And the activity at 10 µM (HL-60, read-out: Percent Growth, log10 conc -5.0)?
**A.** The activity at 10 µM was -24%.

**Q.** And the activity at 1 µM (HL-60, read-out: Percent Growth, log10 conc -6.0)?
**A.** Its activity at 1 µM is -22%.

**Q.** And the activity at 0.1 µM (HL-60, read-out: Percent Growth, log10 conc -7.0)?
**A.** The activity at 0.1 µM was -5%.

**Q.** And the activity at 0.01 µM (HL-60, read-out: Percent Growth, log10 conc -8.0)?
**A.** Its activity at 0.01 µM is 57%.
